Measured values from patent publication US10226048B2 (priority 2014, dated 2019).

Experiment: Oxidization ability against sodium thiosulfate
Settings: acidic solution (pH 2)

SMILES: CC(=O)OO [PAA, Peracetic Acid]
- PAA consumed to oxidize STS and its degradation intermediate: less than 50%
